According to a collection of fitness landscapes (doi:10.1016/j.celrep.2020.107928):
Over roughly 81,000 sequences, “one-hybrid fitness for binding parS DNA” has its median near -0.17; the highest 2% begin near 0.51. Some of the results follow.

B1: Caulobacter ParB omega fusion; a variant is named by its letters at X, in order, B8GW30 (parent)
chain: MESVVVGEPGMSEGRRGLGRGLSALLGEVDAAPAQAPGEQLGGSREAPIEILQRNPDQPRRTFREEDLEDLSNSIREKGVLQPILVRPSPDTAGEYQIVAGERAWRAAQRAGLKTVPIMVRELDDLAVLEIGIIENVQRADLNVLEEALSYKVLMEKFERTQENIAQTIGKSXSHVANXMRLLXLPDEVQSYLVSGELTAXHARAIAAAADPVALAKQIIEGGLSVRETEALARKAPNLSAGKSKGGRPPRVKDTDTQALESDLSSVLGLDVSIDHRGSTGTLTITYATLEQLDDLCNRLTRGI

Variants of: B1
Test: one-hybrid fitness for binding parS DNA (scaled: cognate 1, non-cognate 0); higher = stronger binding
Settings: with parS DNA site
Outline: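 Selection: bacterial one-hybrid in E. coli USO, HIS3 reporter with the site 19 bp from the promoter, 48 hours at 37°C on M9-minus-histidine plus 0.1 mM IPTG and 5 mM 3-AT. Libraries were Caulobacter ParB with four randomised specificity codons, sequenced on Illumina before and after selection. Fitness is the rescaled log change in variant-to-wild-type read ratio, anchored to the cognate and non-cognate sites.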

Variant | one-hybrid fitness for binding parS DNA
LPRT | ≤ 0.2
SMRW | ≤ 0.2
QVEF | ≤ 0.2
YRVS | ≤ 0.2
KHQV | ≤ 0.2
EAKH | ≤ 0.2
LPIQ | ≤ 0.2
LPAK | ≤ 0.2
VEYR | ≤ 0.2
DIDR | ≤ 0.2
HQAD | ≤ 0.2
YCEM | ≤ 0.2
GKYG | ≤ 0.2
CYLY | ≤ 0.2
ADPV | ≤ 0.2
KRRT | ≤ 0.2
EDME | ≤ 0.2
HKDD | ≤ 0.2
EIIR | ≤ 0.2
VTKH | ≤ 0.2
IAPG | ≤ 0.2
ESWG | ≤ 0.2
YVFS | ≤ 0.2
QMCR | ≤ 0.2
RVCE | ≤ 0.2

Variant | one-hybrid fitness for binding parS DNA
TLKR | ≤ 0.2
HPSL | ≤ 0.2
ALDS | ≤ 0.2
QQMY | ≤ 0.2
IERR | ≤ 0.2
HWTR | ≤ 0.2
SRVE | ≤ 0.2
TEPT | ≤ 0.2
TFYG | ≤ 0.2
SSHH | ≤ 0.2
REHN | ≤ 0.2
RSCW | ≤ 0.2
VVSR | ≤ 0.2
VRRV | ≤ 0.2
LKIS | ≤ 0.2
GMIR | ≤ 0.2
MQTT | ≤ 0.2
DGTS | ≤ 0.2
QCTW | ≤ 0.2
RYYH | ≤ 0.2
PFDS | ≤ 0.2
CRIG | ≤ 0.2
WLTV | ≤ 0.2
AQFC | ≤ 0.2
TSTY | ≤ 0.2

Variant | one-hybrid fitness for binding parS DNA
GMAT | 0.266
YAWW | ≤ 0.2
TDRY | ≤ 0.2
PNIE | ≤ 0.2
HAHC | ≤ 0.2
CLSF | ≤ 0.2
ADMI | ≤ 0.2
PKIW | ≤ 0.2
QSVC | ≤ 0.2
HINM | ≤ 0.2
HPRK | ≤ 0.2
RMWV | ≤ 0.2
CGNC | ≤ 0.2
SAGW | ≤ 0.2
MPKG | ≤ 0.2
SARC | ≤ 0.2
YVGI | ≤ 0.2
RKDK | ≤ 0.2
PLRP | ≤ 0.2
EAGH | ≤ 0.2
LCKH | ≤ 0.2
RKCL | ≤ 0.2
SRCD | ≤ 0.2
KRIC | ≤ 0.2
TRTV | ≤ 0.2

Variant | one-hybrid fitness for binding parS DNA
WEPL | ≤ 0.2
ATHN | ≤ 0.2
EKHF | ≤ 0.2
QQEV | ≤ 0.2
HSEP | ≤ 0.2
IVIC | ≤ 0.2
PNCR | ≤ 0.2
KNDK | ≤ 0.2
EPLC | ≤ 0.2
SKVI | ≤ 0.2
HKSS | ≤ 0.2
MRLM | ≤ 0.2
PFHV | ≤ 0.2
QYSH | ≤ 0.2
THGT | ≤ 0.2
WYES | ≤ 0.2
YKAT | ≤ 0.2
VQCS | ≤ 0.2
QQLY | ≤ 0.2
CRRL | ≤ 0.2
ALLR | ≤ 0.2
NEQM | ≤ 0.2
RKIH | ≤ 0.2
ERPY | ≤ 0.2
STKG | ≤ 0.2

Variant | one-hybrid fitness for binding parS DNA
QLIV | ≤ 0.2
ASGP | ≤ 0.2
TRLK | ≤ 0.2
QYSE | ≤ 0.2
IRRE | ≤ 0.2
QASA | ≤ 0.2
LSMR | ≤ 0.2
NLVR | ≤ 0.2
VRHY | ≤ 0.2
SSHL | ≤ 0.2
QVDV | ≤ 0.2
ISSV | ≤ 0.2
RCKN | 0.463
AWDC | ≤ 0.2
AIAF | ≤ 0.2
QEIV | ≤ 0.2
RKEY | 0.401
SSWI | ≤ 0.2
AIRV | ≤ 0.2
YISF | ≤ 0.2
ARWV | ≤ 0.2
DSVR | ≤ 0.2
HSAQ | ≤ 0.2
NYSA | ≤ 0.2
DYGV | ≤ 0.2

Variant | one-hybrid fitness for binding parS DNA
KSMD | ≤ 0.2
RCES | 1.02
YEKM | ≤ 0.2
FSPR | ≤ 0.2
TMPI | ≤ 0.2
MKTL | ≤ 0.2
ASHV | ≤ 0.2
LMYF | ≤ 0.2
QVQF | ≤ 0.2
RVGQ | ≤ 0.2
RDFC | ≤ 0.2
LRSP | ≤ 0.2
WTMS | ≤ 0.2
SPCT | ≤ 0.2
YVGC | ≤ 0.2
MIPM | ≤ 0.2
TRPP | ≤ 0.2
LAWS | ≤ 0.2
PMRR | ≤ 0.2
QRPS | ≤ 0.2
CYLF | ≤ 0.2
LKLL | ≤ 0.2
LSQD | ≤ 0.2
PILT | ≤ 0.2
LDVS | ≤ 0.2

Variant | one-hybrid fitness for binding parS DNA
CLRK | ≤ 0.2
QQMW | ≤ 0.2
ASPN | ≤ 0.2
DQAR | ≤ 0.2
NLRH | ≤ 0.2
CLNC | ≤ 0.2
VANG | ≤ 0.2
QFKA | ≤ 0.2
KLKM | ≤ 0.2
VMRP | ≤ 0.2
FINT | ≤ 0.2
TGRM | ≤ 0.2
QVEC | ≤ 0.2
AHQI | ≤ 0.2
YLWT | ≤ 0.2
DNVR | ≤ 0.2
TWYC | ≤ 0.2
TITL | ≤ 0.2
RGMP | ≤ 0.2
IKLV | ≤ 0.2
HPHP | ≤ 0.2
GQNR | ≤ 0.2
QIPV | ≤ 0.2
QLII | ≤ 0.2
WPTL | ≤ 0.2

Variant | one-hybrid fitness for binding parS DNA
FRNC | ≤ 0.2
FTPS | ≤ 0.2
EHNC | ≤ 0.2
QKSF | ≤ 0.2
DPNC | ≤ 0.2
SKVC | ≤ 0.2
YLSS | ≤ 0.2
WWLS | ≤ 0.2
TWLP | ≤ 0.2
CAEG | ≤ 0.2
LYVL | ≤ 0.2
QMGW | ≤ 0.2
FGSI | ≤ 0.2
DSMV | ≤ 0.2
PHNY | ≤ 0.2
VSVY | ≤ 0.2
ASGW | ≤ 0.2
ASHN | ≤ 0.2
RLST | 0.939
ETHY | ≤ 0.2
